{
  "source": "PubChem BioAssay AID686970",
  "about": "(National Center for Advancing Translational Sciences (NCATS), 2013)",
  "note": "Among all 360,000 compounds or so, about 6,000 (1.7%) were called active. Inconclusive means that the source gave no clear call. Such entries were picked first, then a sample of the others. The call rests on the fitted dose curve; in most records, active means well fitted cell-killing curve with a large enough effect; inconclusive means small, poorly fitted or top-dose-only effect, or effect the other way; inactive means flat fitted curve, though single readings scatter. No potency is given beside an inconclusive call; the fits are too rough. Potency means the concentration at half of the fitted maximal effect; tags describe the fitted curve by direction and shape.",
  "data": [
    {"experiment": "qHTS for induction of synthetic lethality in tumor cells producing 2HG: qHTS for the HT-1080-NT fibrosarcoma cell line;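 further: NT is the 2HG producing partner of a matched IDH1 knockdown line; nearly all actives have a fitted effect of over 55% in size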;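 on activity, negative = less viability: 0% = DMSO-treated cells and -100% = media-only wells without cells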", "conditions": "HT-1080-NT fibrosarcoma viability, CellTiter-Glo ATP luminescence, 48 h; activity, negative = less viability: at 46.1 µM (top of the series) unless noted", "how_it_was_run": "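750 cells/well, RPMI + 5% FBS; 2 h settle, compound pin-transfer, 48 h at 37 degrees C. CellTiter-Glo 10 min RT, luminescence. Normalized to DMSO and media-only wells.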", "values": [
      {"smiles": "CCOC(=O)c1ccc(NC(=O)CC2S/C(=N/N=C/c3c[nH]c4ccccc34)NC2=O)cc1", "note": "(stereo not drawn)", "Potency": "inconclusive [cytotoxic, single point]"},
      {"smiles": "CCOC(=O)c1sc(NC(=O)c2c(C)nn(Cc3ccccc3)c2C)cc1C", "Potency": "inconclusive [cytotoxic, single point]"},
      {"smiles": "O=C(NC(Cc1c[nH]c2ccccc12)C(=O)N/N=C/c1ccc(Br)cc1)c1cccs1", "note": "(stereo not drawn)", "Potency": "inconclusive [cytotoxic, partial curve]"},
      {"smiles": "COc1ccc(NS(=O)(=O)c2ccc(-c3coc(C)n3)cc2)c(OC)c1", "Potency": "inconclusive [cytotoxic, single point]"},
      {"smiles": "NC(=O)CSc1nnc2n(-c3ccccc3)c(=O)c3c4c(sc3n12)CCCCC4", "activity, negative = less viability": "inactive: -0.772%"},
      {"smiles": "O=C(Cn1ccc2ccccc2c1=O)NCCC(=O)Nc1cccc(Cl)c1", "Potency": "inconclusive [cytotoxic, single point]"},
      {"smiles": "COC(=O)c1cnc(Nc2nc(C(N)Cc3ccccc3)cs2)nc1C(F)(F)F", "note": "(stereo not drawn)", "Potency": "inconclusive [cytotoxic, single point]"},
      {"smiles": "COc1ccc(NC(=O)c2cc(-c3cc(OC)c(OC)c(OC)c3)nc3ccccc23)cc1OC", "activity, negative = less viability": "inactive: -1.66%"},
      {"smiles": "CN1CCN(c2ccc(NC(=O)c3ccc(-c4ccc(Cl)cc4)o3)cc2)CC1", "Potency": "active: 5.8 µM"},
      {"smiles": "CCOC(=O)C1CCN(Cc2cc(C(C)(C)C)c(O)c(C(C)(C)C)c2)CC1", "activity, negative = less viability": "inactive: 6.71%"},
      {"smiles": "COc1ccc(C2=Nc3ccccc3N(C(=O)c3ccncc3)C2C(=O)NC(C)(C)C)cc1", "note": "(stereo not drawn)", "activity, negative = less viability": "inactive: -0.661%"},
      {"smiles": "COc1ccc(S(=O)(=O)Nc2ccc(-c3ccc4nnc(C)n4n3)cc2)c(OC)c1", "Potency": "inconclusive [cytotoxic, partial curve]"},
      {"smiles": "O=C(CSC1=NCCS1)Nc1ccc2ccccc2c1", "activity, negative = less viability": "inactive: -7.59%"},
      {"smiles": "CC(=O)N(CCC(Cc1ccccc1)c1ccc2c(c1)OCO2)Cc1ccc(Cl)cc1", "note": "(stereo not drawn)", "Potency": "inconclusive [cytotoxic, single point]"},
      {"smiles": "COc1cccc(OC)c1-c1nn2c(-c3cc(-c4ccccc4)n[nH]3)nnc2s1", "Potency": "inconclusive [cytotoxic, single point]"},
      {"smiles": "COc1ccc(-c2sc3ccccc3c2-c2cc(OC)ccc2C=O)cc1", "Potency": "inconclusive [cytotoxic, single point]"},
      {"smiles": "O=C(/C=C/Nc1ccc(F)cc1F)c1cccs1", "Potency": "inconclusive [cytotoxic, partial curve]"},
      {"smiles": "Cc1onc(-c2ccccc2)c1C(=O)NC(=S)NNC(=O)c1ccc(O)cc1O", "Potency": "inconclusive [cytotoxic, partial curve]"},
      {"smiles": "COc1ccc(C(=O)Nc2ccc3[nH]c(-c4cccc(OC)c4)cc(=O)c3c2)cc1", "activity, negative = less viability": "inconclusive: -4.53% [cytotoxic]"},
      {"smiles": "COc1ccc(-c2noc(C3CCCN(C(=O)CCc4ccccc4)C3)n2)cc1", "note": "(stereo not drawn)", "activity, negative = less viability": "inactive: -4.68%"},
      {"smiles": "Cc1ccc(CC(=O)Nc2nc3c(s2)CCCC3)cc1", "Potency": "inconclusive [cytotoxic, full curve, poor fit]"},
      {"smiles": "O=C(CS(=O)(=O)c1ccc(Cl)cc1)Nc1nccs1", "activity, negative = less viability": "inactive: 6.73%"},
      {"smiles": "O=C(CN1CCN(c2ccc(O)cc2)CC1)Nc1cc(S(=O)(=O)N2CCCCC2)ccc1Cl", "activity, negative = less viability": "inconclusive: -13.3% [cytotoxic]"},
      {"smiles": "CCN(CC)CCCNC(=O)c1ccc(OCC(=O)Nc2ccccc2C(F)(F)F)c(OC)c1", "Potency": "inconclusive [cytotoxic, single point]"},
      {"smiles": "CCCCOCCCNC(=O)C[C@@H]1C[C@@]2(C(=O)OC)CCCCC=C2N(Cc2ccc(Cl)cc2Cl)C1=O", "Potency": "inconclusive [cytotoxic, single point]"},
      {"smiles": "Cn1nc(C(=O)N2CCN(C(c3ccccc3)c3ccccc3)CC2)c2ccccc2c1=O", "activity, negative = less viability": "inconclusive: -30.5% [cytotoxic]"},
      {"smiles": "Cc1nnc(NC(=O)c2nc(S(=O)(=O)Cc3ccccc3C)ncc2Cl)s1", "Potency": "active: 18.4 µM"},
      {"smiles": "O=C(Nc1ccc(F)cc1)C(c1cccc(F)c1)N1CCN(C(=O)c2ccco2)CC1", "note": "(stereo not drawn)", "activity, negative = less viability": "inactive: -3.37%"},
      {"smiles": "COc1ccccc1/C=C/C1(C(=O)NC2CCCC2)CC(=O)N1c1ccc(C)cc1", "note": "(stereo not drawn)", "Potency": "inconclusive [cytotoxic, single point]"},
      {"smiles": "O=C(COc1ccc(/C=N/NC(=O)c2cc3ccccc3o2)cc1Cl)Nc1ccccc1", "Potency": "inconclusive [cytotoxic, full curve]"},
      {"smiles": "COc1ccc(C(C#N)=Cc2ccccc2OC)cc1", "Potency": "inconclusive [cytotoxic, single point]"},
      {"smiles": "Nc1nc(SCC(=O)Nc2ccccc2-c2ccccc2)n[nH]1", "Potency": "inconclusive [cytotoxic, single point]"},
      {"smiles": "O=C(Nc1ccc(Nc2ccncc2)cc1)c1ccc([N+](=O)[O-])cc1", "Potency": "inconclusive [cytotoxic, single point]"},
      {"smiles": "Cc1ccc(CNS(=O)(=O)c2ccccc2[N+](=O)[O-])cc1", "activity, negative = less viability": "inactive: -1.68%"},
      {"smiles": "C#CCN(C[C@@H]1[C@@H](OC(=O)NCc2ccc(OC)c(OC)c2)[C@@H](OC(=O)NCc2ccc(OC)c(OC)c2)Cn2c(=O)ccc(=O)n21)S(=O)(=O)c1ccc(C)cc1", "Potency": "active: 9.2 µM"},
      {"smiles": "O=C(CCl)Nc1ccc(S(=O)(=O)Nc2nccs2)cc1", "Potency": "inconclusive [cytotoxic, single point]"},
      {"smiles": "CC1CCC(NC(=O)Cn2c(=O)oc3cc(S(=O)(=O)N4CCCC4)ccc32)CC1", "note": "(stereo not drawn)", "activity, negative = less viability": "inactive: -0.874%"},
      {"smiles": "CCC/C=C/c1ccc(CN2C(C(C)C)C(=O)N(Cc3cn(CCC4OCCO4)nn3)CCS2(=O)=O)cc1", "note": "(stereo not drawn)", "Potency": "inconclusive [cytotoxic, single point]"},
      {"smiles": "CCCOc1ccc(C(=O)NC(=S)NNC(=O)c2c(-c3ccccc3)noc2C)cc1", "Potency": "inconclusive [cytotoxic, single point]"},
      {"smiles": "CCOC(=O)c1ccc(NC(=O)C2CCCN(S(=O)(=O)c3cnc[nH]3)C2)cc1", "note": "(stereo not drawn)", "activity, negative = less viability": "inactive: 0%"},
      {"smiles": "CCOc1ccc(NC(=O)CSc2nc(=O)n(Cc3cccnc3)c3c2CCC3)cc1", "activity, negative = less viability": "inactive: 1.68%"},
      {"smiles": "COc1ccc(-c2nc3c(Cl)cc(C(F)(F)F)cn3c2Cc2ccc(C)cc2)cc1OC", "Potency": "inconclusive [cytotoxic, single point]"},
      {"smiles": "CC(C)C/C(O)=C/c1nc2cc(Cl)ccc2oc1=O", "Potency": "inconclusive [cytotoxic, single point]"},
      {"smiles": "CCCCCCOc1ccc(OC(=O)c2cccnc2)cc1", "Potency": "inconclusive [cytotoxic, single point]"},
      {"smiles": "COc1cc(CNCc2ccccn2)ccc1OCc1c(Cl)cccc1Cl", "Potency": "inconclusive [cytotoxic, single point]"},
      {"smiles": "C/C(=N\\NC(=O)c1cc2ccccc2cc1O)c1cccs1", "Potency": "inconclusive [cytotoxic, partial curve]"},
      {"smiles": "COc1ccc2[nH]c(=O)c(CN(C(=O)c3cccnc3)c3ccccc3)cc2c1", "activity, negative = less viability": "inactive: 5.54%"},
      {"smiles": "CCc1ccc(NC(=O)c2ccc3c(c2)CCN3S(C)(=O)=O)cc1", "activity, negative = less viability": "inactive: -11.1%"},
      {"smiles": "CCCn1c(CN2CCN(C(=O)OCC)CC2)nc2cc(NC(=O)CC)ccc21", "Potency": "active: 7.31 µM"},
      {"smiles": "Cc1cc(C2N=C(N)Nc3nc4ccccc4n32)c(C)n1-c1ccccc1Cl", "note": "(stereo not drawn)", "Potency": "inconclusive [cytotoxic, single point]"},
      {"smiles": "CCCS(=O)(=O)NC(=O)C1(C)CCN(C(=O)c2cccnc2Oc2ccccc2)C1", "note": "(stereo not drawn)", "activity, negative = less viability": "inactive: 12.4%"},
      {"smiles": "C=CCc1cccc(/C=N/NC(=O)CNc2cccc3ccccc23)c1O", "Potency": "inconclusive [cytotoxic, single point]"},
      {"smiles": "CCOC(=O)c1sc(NC(=O)c2cc(-c3ccccc3C)nc3ccccc23)c(C#N)c1C", "Potency": "inconclusive [cytotoxic, partial curve, poor fit]"},
      {"smiles": "CCOC(=O)c1ccc2c(c1)NCc1cccc(OC)c1O2", "activity, negative = less viability": "inactive: 19%"},
      {"smiles": "CC(=O)Nc1ccc(-c2noc(-c3csc([C@@H]4C[C@H](O)[C@@H](CO)O4)n3)n2)cc1", "Potency": "inconclusive [rising, single point]"},
      {"smiles": "CN(CC(=O)Nc1ccccc1Br)C(=O)c1ccccc1OCc1ccccc1Cl", "Potency": "inconclusive [cytotoxic, partial curve]"},
      {"smiles": "O=C(O)CCCNc1cc(N2CCN(C(=O)c3ccco3)CC2)c2noc3c2c1C(=O)c1ccccc1-3", "Potency": "inconclusive [cytotoxic, single point]"},
      {"smiles": "O=C(CSc1nc(-c2ccccc2)c(-c2ccccc2)[nH]1)NCCN1C(=O)CSC1=O", "Potency": "active: 4.61 µM"},
      {"smiles": "Clc1ccccc1Cn1c(/C=C/c2ccco2)nc2ccccc21", "Potency": "inconclusive [cytotoxic, single point]"},
      {"smiles": "Cc1nn2c(N)c(C#N)cnc2c1-c1ccccc1", "activity, negative = less viability": "inactive: -1.44%"},
      {"smiles": "O=c1c(O)cccc2cc(O)c(O)c(O)c12", "Potency": "inconclusive [cytotoxic, single point]"},
      {"smiles": "O=C(Nc1ccccc1)C1=C(c2ccccc2)S(=O)(=O)CCS1(=O)=O", "Potency": "active: 23.1 µM"},
      {"smiles": "CCC(=O)c1ccc(Oc2nc3c(c(=O)n(C)c(=O)n3C)n2CC)cc1", "activity, negative = less viability": "inactive: -2.32%"},
      {"smiles": "COc1ccc(C2CC(c3ccc(Br)cc3)=NN2C(=O)CN2CCCC2)cc1", "note": "(stereo not drawn)", "Potency": "inconclusive [cytotoxic, single point]"},
      {"smiles": "CCCOc1ccc(/C=N/NC(=O)C2CCCN2S(=O)(=O)c2ccc(Cl)cc2)cc1", "note": "(stereo not drawn)", "Potency": "inconclusive [cytotoxic, single point]"},
      {"smiles": "O=C(Nc1ccc([N+](=O)[O-])cc1)Nc1ccc(OC(F)F)c(Cl)c1", "Potency": "inconclusive [cytotoxic, single point]"},
      {"smiles": "O=C1c2cccc3cccc(c23)C(=O)N1c1ccc(O)cc1", "activity, negative = less viability": "inactive: 9.01%"},
      {"smiles": "Cc1cc(C)c(NC(=O)C(C)c2cccc(C(=O)c3ccccc3)c2)c(C)c1", "note": "(stereo not drawn)", "Potency": "inconclusive [cytotoxic, single point]"}
    ]}
  ]
}
